Out of some 350,000 compounds screened, about 31,000 (8.9%) were called active. Inconclusive results, whose numbers are uncertain, are shown with a selection of clear calls. The call rests on the fitted dose curve; in most records, active means well fitted inhibition curve with a large enough effect; inconclusive means small, poorly fitted or top-dose-only effect; inactive means no such curve, though single readings can be large or run the other way. A potency beside an inconclusive call is a rough fit, not a confirmed value.
Molecular target: Histone-lysine N-methyltransferase EHMT2 (Homo sapiens) (UniProt Q96KQ7)
Chain of UniProt Q96KQ7 (Q96KQ7 whole entry, looked up): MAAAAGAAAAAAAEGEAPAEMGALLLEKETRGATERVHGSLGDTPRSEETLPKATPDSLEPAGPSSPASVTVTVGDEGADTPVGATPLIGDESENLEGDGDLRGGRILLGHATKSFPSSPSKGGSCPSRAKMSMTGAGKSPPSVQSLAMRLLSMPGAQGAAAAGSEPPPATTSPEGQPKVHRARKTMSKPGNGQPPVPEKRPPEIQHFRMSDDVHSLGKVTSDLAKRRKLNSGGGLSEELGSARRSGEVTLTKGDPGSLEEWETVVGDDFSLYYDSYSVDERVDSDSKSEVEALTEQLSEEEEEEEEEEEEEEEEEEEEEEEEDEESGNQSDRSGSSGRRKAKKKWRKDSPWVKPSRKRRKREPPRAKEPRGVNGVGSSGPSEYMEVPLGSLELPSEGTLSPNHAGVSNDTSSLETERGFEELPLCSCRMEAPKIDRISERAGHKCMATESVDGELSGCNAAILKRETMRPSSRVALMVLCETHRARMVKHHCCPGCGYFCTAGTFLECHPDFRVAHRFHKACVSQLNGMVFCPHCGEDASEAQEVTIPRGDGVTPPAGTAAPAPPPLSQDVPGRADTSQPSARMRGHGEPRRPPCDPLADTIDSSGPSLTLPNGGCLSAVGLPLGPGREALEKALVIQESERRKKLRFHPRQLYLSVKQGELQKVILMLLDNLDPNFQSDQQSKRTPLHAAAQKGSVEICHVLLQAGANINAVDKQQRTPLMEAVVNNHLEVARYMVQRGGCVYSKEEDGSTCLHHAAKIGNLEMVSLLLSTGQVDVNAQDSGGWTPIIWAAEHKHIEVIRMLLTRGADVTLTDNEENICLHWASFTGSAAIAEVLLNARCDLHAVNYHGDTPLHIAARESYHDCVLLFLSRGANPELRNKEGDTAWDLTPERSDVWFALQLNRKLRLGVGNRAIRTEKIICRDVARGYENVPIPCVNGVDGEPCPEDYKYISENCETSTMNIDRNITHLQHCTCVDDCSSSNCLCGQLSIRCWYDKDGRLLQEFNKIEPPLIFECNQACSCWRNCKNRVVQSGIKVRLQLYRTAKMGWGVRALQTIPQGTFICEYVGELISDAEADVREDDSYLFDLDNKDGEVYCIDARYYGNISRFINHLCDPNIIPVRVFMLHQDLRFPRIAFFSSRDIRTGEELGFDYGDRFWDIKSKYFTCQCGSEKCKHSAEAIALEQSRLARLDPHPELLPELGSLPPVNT
Experiment: qHTS Assay for Inhibitors of Histone Lysine Methyltransferase G9a; further: nearly all actives have a fitted effect of over 75% in size
Details: G9a H3K9 monomethylation, AlphaScreen, 2 h; activity, negative = inhibition: at 59 µM (top of the series) unless noted
How it was run: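 Chemiluminescent proximity detection of H3K9 monomethylation, read after 10 min bead incubation in the dark. Reaction: 20 nM G9a, 500 nM biotin-H3K9 peptide, 20 uM SAM cofactor, 2 h, room temperature, following 15 min enzyme-compound preincubation.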
On the % scale 0 is the no-effect control and ±100 the full control effect; potency means the concentration at half of the fitted maximal effect; tags describe the fitted curve by direction and shape.

SMILES | Potency | activity, negative = inhibition
CN(C)CCN(C(=O)c1ccc(Br)s1)c1nc2cc3c(cc2s1)OCCO3 | inconclusive: 11.2 µM [inhibitor, partial curve, poor fit] | 
CC(C)Cc1ccc(C(C)NC(=O)c2ccc(=O)[nH]c2)cc1 (stereo unspecified) |  | inactive: 4.15% [at 102 µM]
COc1ccccc1-n1c(SCC(=O)NCC2CCCO2)nc2c([nH]c3ccccc32)c1=O (stereo unspecified) |  | inactive: 2.3% [at 102 µM]
O=c1c2cc(-c3ccccc3)sc2nc2n1N=C(c1cccs1)CS2 | active: 11.2 µM | 
O=C(CCc1ccccc1Cl)N1CCN(S(=O)(=O)c2ccccc2)CC1 | inconclusive: 0.794 µM [inhibitor, full curve] | 
CC(C)CN1CC[C@@]2(CCCN(C(=O)c3cccc(F)c3)C2)C1 |  | inactive: -3.02% [at 12.7 µM]
CCCCCCCCCCCCCCCC(=O)OCC(O)C1OC(=O)C(O)=C1O (stereo unspecified) | inconclusive: 17.8 µM [inhibitor, single point] | 
CCN(CC(=O)Nc1ccc(OC)cc1)C(=O)Cc1coc2cc(C)c(C)cc12 | inconclusive: 4.47 µM [inhibitor, partial curve, poor fit] | 
O=C(Cc1ccc(S(=O)(=O)N2CCOCC2)s1)Nc1cc(C(F)(F)F)ccc1N1CCCC1 | active: 50.1 µM | 
CCCCN(C)Cc1cc(=O)oc2cc3c(cc12)CCCC3 |  | inactive: 112% [at 102 µM]
CCOc1ccc(/C=N/NC(=O)c2ccoc2C)cc1OC |  | inactive: 1.43% [at 102 µM]
CCOC(=O)c1cccc(NC(=O)CCS(=O)(=O)c2cccc3nsnc23)c1 |  | inconclusive: -60.6% [inhibitor]
Cc1nnc(NC(=O)CCS(=O)(=O)Cc2ccccc2)s1 | inconclusive: 31.6 µM [inhibitor, single point] | 
C#CC[N+]1(CC#Cc2ccc(C)cc2)CCCCC1 | inconclusive: 89.1 µM [inhibitor, single point] | 
O=c1oc(-c2ccco2)nc2ccccc12 |  | inconclusive: -72.7% [inhibitor]
CCSc1nnc(-c2cccc(S(=O)(=O)N(C)C)c2)n1-c1cc(OC)ccc1OC | inconclusive: 89.1 µM [inhibitor, partial curve, poor fit] | 
COc1ccc(OCc2ccc(-c3nc(C#N)c(N4CCC(C)CC4)o3)o2)cc1 | active: 3.55 µM | 
NC(=O)Cn1nnc(-c2ccccc2NC(=O)c2cnccn2)n1 | inconclusive: 20 µM [inhibitor, partial curve, poor fit] | 
COc1ccc(OCC(=O)Nc2ccc3c(c2)OCO3)cc1 | inconclusive: 3.16 µM [inhibitor, partial curve] | 
O=C(C1CCCN(Cc2ccc([N+](=O)[O-])cc2)C1)N1CCCCC1 (stereo unspecified) | active: 28.2 µM | 
O=C(O)COc1ccc(Br)cc1/C=N/O | active: 56.2 µM | 
COc1ccccc1N1CCN(S(=O)(=O)c2ccc3[nH]c4c(c3c2)CCCC4)CC1 | inconclusive: 8.91 µM [inhibitor, full curve] | 
CCO/C=C1\N=C(c2ccc(F)cc2)OC1=O | inconclusive: 17.8 µM [inhibitor, partial curve, poor fit] | 

SMILES | Potency | activity, negative = inhibition
OC(COc1ccc2c(c1)OCO2)CN1CCCCC1 (stereo unspecified) |  | inactive: -2.16% [at 102 µM]
Cc1ccc2c(CN3CCCc4ccccc43)cc(=O)oc2c1C | inconclusive: 5.62 µM [inhibitor, partial curve, poor fit] | 
O=C1c2ccccc2C(Nc2ccc3c(c2)OCCO3)N1Cc1ccccc1 (stereo unspecified) | active: 44.7 µM | 
COc1cc(NC(=S)N2CCN(C)CC2)c(OC)cc1Cl | active: 39.8 µM | 
CCCC(c1nnnn1CCc1ccccc1)N1CCN(C(=O)c2ccco2)CC1 (stereo unspecified) | inconclusive: 89.1 µM [inhibitor, single point] | 
CCC(CC)=N/N=C/c1c(O)n(CC)c2cc(C3=NNC(=O)CC3)ccc12 | active: 3.55 µM | 
O=C(COC(=O)CC1CC2CCC1C2)Nc1cccc(S(=O)(=O)NC2=NCCCCC2)c1 (stereo unspecified) | inconclusive: 0.891 µM [inhibitor, partial curve, poor fit] | 
O=C(CSc1nc2ccc([N+](=O)[O-])cc2[nH]1)c1ccc2ccccc2c1 |  | inactive: 57%
O=C(COC(=O)c1sc2ccccc2c1Cl)Nc1ncc(Cl)cc1Cl | inconclusive: 35.5 µM [inhibitor, single point] | 
O=C(COC(=O)/C=C/c1ccc(Cl)cc1)NCCc1ccccc1 | inconclusive: 31.6 µM [inhibitor, single point] | 
COc1ccc(C(=O)N2CC(=O)Nc3ccc(C)cc3C2c2ccccc2)c(OC)c1 (stereo unspecified) |  | inactive: 5.66%
COC(=O)c1ccc(CSCc2ccc(C(=O)OC)o2)o1 |  | inactive: 27.7% [at 102 µM]
CCCN(CC1CC1)C(=O)COC(=O)c1[nH]c(C)c(C(=O)OCC)c1C | inconclusive: 50.1 µM [inhibitor, partial curve, poor fit] | 
CCOC(=O)c1c2n(c3ccc(OC(C)=O)cc13)CCC2 | inconclusive: 89.1 µM [inhibitor, single point] | 
N#CCC(N)=C(C#N)C#N | inconclusive: 22.4 µM [inhibitor, single point] | 
O=C(Nc1ccc2oc(-c3ccncc3)nc2c1)c1ccc(Br)o1 | active: 31.6 µM | 
CCOc1cc(-c2nnc(SCC(=O)NCc3ccccc3)nc2-c2ccc(OC)c(OCC)c2)ccc1OC | active: 7.94 µM | 
COc1ccc2cc(CN(CCc3ccccc3)Cc3nnnn3Cc3ccco3)c(=O)[nH]c2c1 | inconclusive: 39.8 µM [inhibitor, single point] | 
Cc1nc(NC(=O)c2oc3ccccc3c2C)sc1C(=O)N(C)C | inconclusive: 12.6 µM [inhibitor, partial curve, poor fit] | 
COc1ccc(OC)c(C(c2nnnn2CCC(C)C)N2CCN(C(=O)c3ccco3)CC2)c1 (stereo unspecified) |  | inactive: -18.3%
O=C(Nc1ccccc1N1CCCC1)C1CC(=O)N(Cc2ccccc2)C1 (stereo unspecified) | inconclusive: 50.1 µM [inhibitor, partial curve, poor fit] | 
CCCN(CCC)CCNC(=O)CN1C(=O)COc2ccc(S(=O)(=O)N3CCC(C)CC3)cc21 | inconclusive: 25.1 µM [inhibitor, single point] | 
Cc1ccc(S(=O)(=O)N2CCCC(C)C2)cc1 (stereo unspecified) |  | inactive: 69.1% [at 102 µM]

Source: PubChem BioAssay AID504332 (National Center for Advancing Translational Sciences (NCATS), 2011)
